# Measured values taken from PubChem BioAssay AID686979 (National Center for Advancing Translational Sciences (NCATS), 2013).
# About 50,000 (12%) of roughly 420,000 compounds were called active. The inconclusive results got no clear call from the source; some entries with a clear call stand among them for comparison. Calls come from the whole dose curve; as a rule, active = well fitted inhibition curve with a large enough effect; inconclusive = small, poorly fitted or top-dose-only effect; inactive = flat fitted curve, though single readings scatter. Potencies of inconclusive entries are left out as doubtful fits.
# Assay: qHTS for Inhibitors of human tyrosyl-DNA phosphodiesterase 1 (TDP1): qHTS in cells in presence of CPT; note: nearly all actives have a fitted effect of over 55% in size
# Conditions: chicken DT40 Tdp1-/-;hTDP1 cells + 20 nM CPT, ATP luminescence, 48 h; activity change, negative = growth inhibition: at 46.2 µM (top of the series) unless noted
# Outline: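 Chicken DT40 Tdp1-/- cells stably complemented with human TDP1 were seeded at 400 cells/well in medium containing 20 nM camptothecin, exposed to pin-transferred compounds, and grown at 37 °C for at least 48 hr. Viability was read as ATP luminescence.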
# % is set by controls: 0 for no effect and ±100 for the full control effect; potency is the fitted concentration of half-maximal effect; tags give direction and shape of the fitted curve.
SMILES,"activity change, negative = growth inhibition",Potency
CC(C)CC(=O)N1CCN(Cc2ccc3ccccc3c2)CC1,inactive: -17.7%,–
COc1cccc(CNC(=O)C2(C)Oc3ccccc3NC2=O)c1 (stereo unspecified),inactive: -2.71%,–
Cn1cc(C(=O)c2ccc(Cl)cc2)cc1-c1nc2ccccc2n1C,–,active: 13 µM
Cc1cc(Oc2ccccc2)nc(OCC#N)n1,inactive: 28.2%,–
Cc1ccc(C(=O)CSc2nsc(C)c2C#N)cc1,–,"inconclusive [inhibitor, single point]"
COc1ccccc1C(NC(=O)C1CCN(CCOc2ccc3ccccc3c2)CC1)c1ccccn1 (stereo unspecified),–,active: 14.6 µM
Cc1ccc(CSCC(=O)N(C)CC(=O)Nc2c(Cl)cccc2Cl)cc1,–,active: 18.4 µM
Fc1cccc(Cl)c1CSc1nnc(CNc2ccccc2)o1,–,"inconclusive [inhibitor, single point]"
COc1cccc(-c2nnc(SCC(=O)N3CCCCC3)o2)c1,–,"inconclusive [inhibitor, partial curve]"
COc1ccc(NS(=O)(=O)c2ccc(-c3cnc(C4CC4)o3)cc2)cc1OC,–,active: 2.06 µM
CCN(CC(=O)Nc1ccccc1C(F)(F)F)C(=O)CCSc1ccc(F)cc1,inactive: -23.9%,–
Cc1oc2c(c1C(=O)NCc1ccccc1)CCCC2,–,"inconclusive [inhibitor, single point]"
O=C(c1ccco1)N1CCN(c2ccc(F)cc2)CC1,inconclusive: -32.6% [inhibitor],–
CCCCNC(=S)NC(=O)c1ccc(Cl)cc1Cl,inactive: -26.8%,–
COc1cc(-c2nc3ccc4ccccc4c3c3c2CCC3)cc(OC)c1OC,–,"inconclusive [inhibitor, single point]"
CC1(C)N=C(N)N=C(N)N1c1cccc(C(=O)O)c1,inactive: -4.01%,–
C=C[C@](C)(O)CCC1C(=C)CCC2[C@@](C)(CO)CCC[C@@]12C (stereo partly specified),–,"inconclusive [inhibitor, single point]"
O=C1CSC(c2ccc([N+](=O)[O-])cc2)N1c1ccc(O)cc1 (stereo unspecified),inactive: -8.44%,–
COc1ccc(-c2c(C)nc3c(-c4ccsc4)cnn3c2N)cc1,–,"inconclusive [inhibitor, partial curve]"
Cc1ccc(SCCc2ccc(C)nc2)cc1,inactive: -2.64%,–
COc1ccc(S(=O)(=O)NCC(c2cccnc2)N2CCN(c3ccc(F)cc3)CC2)cc1C (stereo unspecified),–,active: 14.6 µM
CCOc1ccc(NC(=O)N2CCC(c3nc4ccccc4[nH]3)CC2)cc1,inactive: 9.95%,–
COCCN(CC(=O)NC1CCCCC1)C(=O)/C=C/C(=O)c1ccc(OC)cc1O,–,active: 2.06 µM
CCCc1cc(=O)oc2c3c(c4c(c12)OC(C)(C)C=C4)OC(C)C(C)C3O (stereo unspecified),–,active: 8.2 µM
NC(=NCCc1ccc(Cl)cc1)NS(=O)(=O)c1ccc(F)cc1,–,"inconclusive [inhibitor, single point]"
CN(CC(=O)O)c1ccc(/C=C2\C=Cc3ccccc32)cc1,–,"inconclusive [inhibitor, single point]"

SMILES,"activity change, negative = growth inhibition",Potency
COc1ccc(CNc2nc3nc4c(c(=O)n3[nH]2)CCC4)cc1,inactive: -0.264%,–
CNc1oc(Cc2ccccc2)nc1S(=O)(=O)c1ccccc1,–,active: 14.6 µM
CC(C(=O)c1ccc(Br)cc1)[n+]1cccc(NC(=O)c2ccccc2)c1 (stereo unspecified),–,"inconclusive [inhibitor, single point]"
CN(C(=O)c1ccc(-c2nn(C)c(=O)c3ccccc23)cc1)c1ccccc1,–,"inconclusive [inhibitor, single point]"
Cc1ccc(C(C)C)c(OCC(=O)NNC(=O)C(C(C)C)N2C(=O)c3ccccc3C2=O)c1 (stereo unspecified),inactive: -0.96%,–
CCOC(=O)c1cccc(NC(=O)c2ccc3c(c2)nnn3CC)c1,–,"inconclusive [inhibitor, single point]"
COc1cc2ccccc2cc1C(=O)NCc1ccncc1,inactive: 12.6%,–
CCOC(=O)c1ccc(NC(=O)Nc2ccc(S(N)(=O)=O)cc2)cc1,inactive: -4.2%,–
COc1c(S(=O)(=O)N2CCCC2)ccc(Cl)c1Cl,–,"inconclusive [inhibitor, single point]"
Cc1ccc(C)c(NC(=O)C2Cc3ccccc3CN2C(=O)OCc2ccccc2)c1 (stereo unspecified),–,"inconclusive [inhibitor, single point]"
CCOC(=O)N1CCN(C(=S)NC(=O)c2cncc(Br)c2)CC1,–,"inconclusive [inhibitor, single point]"
CCN(CC)C(=S)Nc1ccc(OC(F)F)cc1,inactive: -13.3%,–
Cc1ccc(-c2nnc(SCC(=O)NNC(=O)COc3ccccc3C)n2C)cc1,–,"inconclusive [inhibitor, partial curve]"
COc1ccc(OC)c(NC(=O)c2oc3c(c2C)C(O)CC(C)(C)C3)c1 (stereo unspecified),–,active: 14.6 µM
CN(C)S(=O)(=O)c1cccc(C(=O)N2CCN(S(=O)(=O)c3ccc4c(c3)OCCO4)CC2)c1,–,"inconclusive [inhibitor, single point]"
c1ccc([C@H]2CN3C(=N2)Sc2ccccc23)cc1,–,active: 18.4 µM
O=c1[nH][nH]c2c1[C@H](CCc1cccc(Cl)c1)O[C@H](CCc1ccccc1)C2,–,"inconclusive [inhibitor, single point]"
CC(=O)N1c2ccc(S(=O)(=O)NCCC(=O)N3CCC(C)CC3)cc2CC1C (stereo unspecified),inconclusive: -33% [inhibitor],–
CC1CCCN(S(=O)(=O)c2ccc3[nH]c4c(c3c2)CCCC4)C1 (stereo unspecified),–,active: 20.6 µM
O=C(CN(Cc1ccccc1)S(=O)(=O)c1ccc2c(c1)OCCO2)N/N=C/c1cccc(Br)c1,–,"inconclusive [inhibitor, single point]"
COc1cc(NC(=O)COc2ccccc2Cl)ccc1NC(=O)C(C)C,inactive: -20%,–
C[C@H](CO)N1C[C@H](C)[C@@H](CN(C)S(=O)(=O)c2ccc(F)cc2)OCc2cn(nn2)CCCC1=O,inactive: -10.7%,–
Cc1ccc(C(C(=O)NC2CCCCC2)N(C)Cc2ccccc2)cc1 (stereo unspecified),–,"inconclusive [inhibitor, single point]"
N#CCc1ccc(OCCCN2CCC(C(O)(c3ccccc3)c3ccccc3)CC2)cc1,–,active: 23.1 µM
COc1cccc(CNC(=O)Cn2ccc3cc(S(=O)(=O)N4CCCCCC4)ccc32)c1OC,–,"inconclusive [inhibitor, single point]"
COc1ccc(CCN(C)C(=O)c2cccc(S(=O)(=O)N3CCN(c4ccc(F)cc4)CC3)c2)cc1OC,–,active: 14.6 µM

SMILES,"activity change, negative = growth inhibition",Potency
CCCCOc1ccc2c(C)cc(=O)oc2c1OCCCC,–,active: 16.4 µM
CCc1cccc(CC)c1NC(=O)CCS(=O)(=O)c1ccc(Br)s1,inactive: 0.234%,–
C/C(=N\NC(=O)CN(c1ccccc1Br)S(C)(=O)=O)c1ccc2c(c1)OCCO2,–,"inconclusive [inhibitor, single point]"
Cc1cc(C)n2c(NCc3ccccc3)c(CCc3ccccc3)nc2n1,–,"inconclusive [inhibitor, single point]"
CC(NC(=O)CCNS(=O)(=O)c1ccccc1)c1ccccc1 (stereo unspecified),–,"inconclusive [inhibitor, full curve, poor fit]"
COCCNC(=O)C1(C)CCCN(C(=O)c2cnc3ccccc3n2)C1 (stereo unspecified),inactive: 1.92%,–
CCn1c(=O)c(C(=O)NCc2ccccn2)c(O)c2ccccc21,inactive: -25.2%,–
CC(OC(=O)c1ccc(NC(=O)CC#N)cc1)C(=O)Nc1ccc(S(=O)(=O)N2CCCC2)cc1 (stereo unspecified),inactive: -20%,–
CCOC(=O)N1CCC(NC(=O)c2cc(C(=O)NC3CCN(Cc4ccccc4)CC3)ccc2CO)CC1,–,active: 1.84 µM
O=C1c2ccccc2C2N1CCCN2C(=O)c1sc2ccccc2c1Cl (stereo unspecified),–,active: 18.4 µM
O=C(NC1CCS(=O)(=O)C1)c1cc2c(=O)n3ccccc3nc2n1Cc1ccccc1 (stereo unspecified),–,"inconclusive [inhibitor, partial curve]"
O=C(COC(=O)C1CC1)NCCNC(=O)COC(=O)C1CC1,inconclusive: -39.2% [inhibitor],–
O=C(NC(c1ccc(Cl)cc1)c1cnccn1)C1CCN(CCCc2ccccc2)CC1 (stereo unspecified),–,active: 23.1 µM
CCOc1ccc(NC(=O)c2oc3ccccc3c2NC(=O)C2CCCCC2)cc1,inactive: -16.2%,–
COCCNc1ccc([N+](=O)[O-])cc1C(=O)NC1CCCc2ccccc21 (stereo unspecified),inactive: -26.6%,–
CCn1c2ccccc2c2cc(NC(=O)CSc3nnc(-c4ccccc4)o3)ccc21,–,active: 9.2 µM
Cn1cc(-c2cc3n(n2)CCC(=O)N3CCCC(=O)NCc2ccc(F)cc2)c2ccccc21,–,active: 16.4 µM
CCN1C(=O)CCN(C2CCCC2)c2nc(Nc3ccc(C(=O)NC4CCN(C)CC4)cc3OC)ncc21,–,active: 5.17 µM
CC(=O)c1sc(NC(=O)C2CCN(C(=O)c3ccc(F)cc3)CC2)nc1-c1ccccc1,–,"inconclusive [inhibitor, single point]"
CCSc1nc2nn(-c3ccccc3)c(=O)c-2c2n1CCCCC2,–,"inconclusive [inhibitor, partial curve]"
O=C(Nc1nc(-c2ccccc2)cs1)C1CCCCN1S(=O)(=O)c1ccc(Cl)cc1 (stereo unspecified),–,"inconclusive [inhibitor, single point]"
Cc1cccc(C)c1NC(=O)c1nc(S(C)(=O)=O)ncc1N(Cc1ccc(C(C)(C)C)cc1)Cc1ccco1,–,"inconclusive [inhibitor, single point]"
CCOC(=O)C(Cc1ccc(NC(=O)/C(=C/c2ccccc2)NC(=O)c2ccccc2)cc1)N1C(=O)c2ccccc2C1=O (stereo unspecified),–,active: 5.17 µM
CCOC(=O)c1ccccc1Nc1nc2ccc(C)cc2n2nnnc12,inconclusive: -31.4% [inhibitor],–
